Out of some 420,000 compounds screened, about 64,000 (15%) were called active. Inconclusive results, whose numbers are uncertain, are shown with a selection of clear calls. Calls come from the whole dose curve; as a rule, active = well fitted inhibition curve with a large enough effect; inconclusive = small, poorly fitted or top-dose-only effect; inactive = flat fitted curve, though single readings scatter. Potencies of inconclusive entries are left out as doubtful fits.
assay: qHTS for Inhibitors of human tyrosyl-DNA phosphodiesterase 1 (TDP1): qHTS in cells in absence of CPT; settings: DT40 Tdp1-/- hTDP1 cells, no CPT, ATP luminescence, 48 h; series mostly up to 46.2 µM; note: nearly all actives have a fitted effect of over 55% in size
Procedure, shortened: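 Luminescent ATP content (CellTiter-Glo) served as the growth readout. Knockout chicken DT40 cells expressing human TDP1 were exposed to compounds without camptothecin for a minimum 48 hr at 37 °C.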
Potency is the fitted concentration of half-maximal effect; tags give direction and shape of the fitted curve.

Structure (SMILES) | Potency
O=S(=O)(c1ccccc1)n1ccc2cccnc21 | inactive
CCn1c(SCC(=O)Nc2ccc3[nH]c(=O)[nH]c3c2)nc2ccccc21 | inactive
Cc1ccc(S(=O)(=O)Nc2cccnc2Oc2ccc(Cl)cc2)cc1 | inactive
C=C(C(=O)c1ccccc1)C(c1ccccc1)C(C)C(=O)c1ccccc1 (stereo not given) | inconclusive [inhibitor, single point]
CC(=O)c1cc2c(cc1N)OCO2 | inactive
O=C(N/N=C/c1cn(-c2cccs2)nc1-c1ccccc1)c1ccccc1O | active: 8.2 µM
COc1ccccc1CNC(=O)c1ccc(CS(=O)(=O)c2ccc(C)cc2)o1 | inactive
COc1ccc(S(=O)(=O)N2CCCCCC2)cc1NC(=O)Cc1ccccc1 | inactive
Cc1c(C(=O)NCc2cccc(Cl)c2)sc2ncnc(N(C)C3CCCCC3)c12 | inconclusive [inhibitor, single point]
COc1ccc(-c2cc(C(F)(F)F)c3c(=O)n(-c4ccccc4)[nH]c3n2)cc1 | inconclusive [inhibitor, partial curve]
CCn1c(CCc2ccccc2)n[nH]c1=S | inconclusive [inhibitor, single point]
Cc1noc(C)c1CSc1ccc(Br)cc1 | inconclusive [inhibitor, single point]
Cc1ccccc1S(=O)(=O)Nc1ncnc2ccccc12 | inactive
O=C(COc1ccc(Br)cc1CO)Nc1ccc(F)cc1 | inactive
O=C1NC(=S)S/C1=C/c1ccc(OC(=O)c2ccco2)cc1 | inactive
CCOC(=O)CCCSc1nc2sc(C)c(C)c2c(=O)[nH]1 | inconclusive [inhibitor, single point]
COc1ccc([N+](=O)[O-])cc1N(CC(=O)N1CCN(Cc2ccccc2)CC1)S(C)(=O)=O | inconclusive [inhibitor, single point]
COc1ccc(CC(N)c2csc(Nc3ccc(C(=O)c4ccccc4)cc3)n2)cc1 (stereo not given) | active: 9.2 µM
CC(C)(C)c1ccc(OCc2ccc(C(=O)NN)o2)cc1 | inconclusive [inhibitor, single point]
C=CCN1c2ccccc2[C@]23C[C@@H](C(=O)OC)N(C(=O)NCCC)C2=NC(C(=O)OC)=C(C(=O)OC)[C@H]13 | inactive
CCN1C(=O)c2cccc3c(N)ccc(c23)C1=O | inconclusive [inhibitor, partial curve]
N#C/C(=C(/O)C(Cl)(Cl)Cl)c1nc2ccccc2[nH]1 | active: 9.2 µM
Cc1noc(NS(=O)(=O)c2ccc(NC(=O)CSc3nnc4c(n3)[nH]c3ccccc34)cc2)c1C | inactive
CC(=O)Nc1ccc(OCC(O)CN2CCN(c3ccccc3Cl)CC2)cc1 (stereo not given) | inactive
CCOc1ccc2nc(NC(NC(=O)CC)(C(=O)OC)C(F)(F)F)sc2c1 (stereo not given) | inactive

Structure (SMILES) | Potency
Cc1cccc(-c2cnn(-c3cccc([N+](=O)[O-])c3)c2N)c1 | inconclusive [inhibitor, single point]
COC(=O)c1sc2nc(CN3CCOCC3)nc(N3CCOCC3)c2c1C | inactive
O=C(NCCCCNC(=O)c1ccc(F)cc1)c1ccc(F)cc1 | inactive
CC(C)(C)NC(=O)C(c1ccccn1)N(C(=O)C1CSC(=O)C1)c1cccc(F)c1 (stereo not given) | inactive
O=C(Cn1cc([N+](=O)[O-])cn1)NCc1cc2ccccc2[nH]1 | inactive
CC(=O)c1cccc(NC(=S)NC(=O)CC(C)(C)C)c1 | inactive
Cc1csc(NC(=O)CCCC(=O)O)c1-c1nc2ccccc2s1 | inconclusive [inhibitor, single point]
CCOc1ccc(CCNC(=O)c2cc3c(=O)oc4ccc(C)cc4c3s2)cc1OCC | inconclusive [inhibitor, partial curve, poor fit]
S=C1NC2=C(CCC/C2=C\c2ccccc2)C(c2ccccc2)N1 (stereo not given) | active: 14.6 µM
COc1ccccc1Cc1c(-c2ccc(Cl)cc2)nc2ccc(Cl)cn12 | inconclusive [inhibitor, single point]
COc1ccc(CCC(=O)Nc2ccc(-c3noc(-c4ccc(OC)c(OC)c4)n3)cc2)cc1 | inconclusive [inhibitor, single point]
COc1ccc(S(=O)(=O)N2CCC(C(=O)NCC3CCCCC3)CC2)cc1 | inconclusive [inhibitor, single point]
CCCCCCn1c(SCC(=O)c2c(N)n(C)c(=O)n(C)c2=O)nc2ccccc21 | inconclusive [inhibitor, full curve]
COc1ccccc1NS(=O)(=O)c1ccc(C(=O)N2CC(C)OC(C)C2)cc1 (stereo not given) | inactive
O=C(Nc1ccc(Cl)c(Cl)c1)N1CCSC1c1ccco1 (stereo not given) | inconclusive [inhibitor, single point]
Cc1ccccc1CN1C2=NCCCN2c2ccccc21 | active: 18.4 µM
COc1ccc(OC)c(NC(=O)CS(=O)(=O)Cc2nc(-c3ccccc3C)oc2C)c1 | inactive
O=C(NN=Cc1cccc([N+](=O)[O-])c1)c1cc(-c2cccnc2)nc2ccccc12 | inconclusive [inhibitor, partial curve, poor fit]
CCN(Cc1ccccc1)S(=O)(=O)c1ccc(C(=O)N(CCCN(C)C)c2nc3c(C)c(C)ccc3s2)cc1 | active: 16.4 µM
CS(=O)(=O)N(CC(O)Cn1c2ccccc2c2ccccc21)c1ccccc1 (stereo not given) | inconclusive [inhibitor, single point]
O=[N+]([O-])c1ccc(C(=Nc2cccc3ccccc23)N2CCOCC2)cc1 | inconclusive [inhibitor, single point]
Cc1nn(CCC(=O)Nc2cc(F)ccc2F)c(=O)c2nn(-c3ccccc3)c(C)c12 | inconclusive [inhibitor, single point]
CCOC(=O)c1ccc(NC(=O)Cn2cc3c(n2)CCC(C)C3)cc1 (stereo not given) | inactive
O=C1NC(=NCc2ccccc2)S/C1=C\c1ccccc1 | inconclusive [inhibitor, single point]
N#C/C(=C\C1CC=CCC1)c1nc2ccccc2[nH]1 (stereo not given) | inconclusive [inhibitor, partial curve]

Structure (SMILES) | Potency
CCOC(=O)c1sc(=S)n(-c2ccc(OC)cc2)c1C | inactive
COc1ccc(CNC(=O)CN(Cc2ccc(C)cc2)S(=O)(=O)c2ccc(Cl)cc2)cc1 | inconclusive [inhibitor, single point]
CCOC(=O)c1c(C)[nH]c(C)c1-c1ccccc1OC | inconclusive [inhibitor, single point]
Cc1ccc(OCCn2cc(/C=C3\C(=O)NN(c4ccccc4)C3=O)c3ccccc32)cc1 | active: 25.9 µM
Cc1cccn2c(=O)c(C(=O)NC3CCCCC3)c(O)nc12 | active: 18.4 µM
COc1cc(Nc2nc(SCC(=O)c3ccc(Br)cc3)nc3ccccc23)cc(OC)c1 | active: 2.91 µM
CCOC(=O)c1sc(=S)n(CC)c1N | inconclusive [inhibitor, full curve, poor fit]
CCC(C)(C)NC(=O)CN(C(=O)CCC(=O)Nc1cc(C)ccn1)c1ccc2c(c1)OCCO2 | inactive
Cc1ccc(C(=O)N2CCN(c3ccc(F)cc3)CC2)cc1S(=O)(=O)N1CCCCC1 | active: 16.4 µM
Cc1oc2cc3oc(=O)c(CCC(=O)N4C[C@H]5C[C@@H](C4)c4cccc(=O)n4C5)c(C)c3cc2c1C | inconclusive [inhibitor, full curve, poor fit]
CCS(=O)(=O)N1Cc2ccccc2CC1C(=O)Nc1ccc(F)c(F)c1F (stereo not given) | inconclusive [inhibitor, single point]
COc1ccc2ccccc2c1C=NN1CCCCC1 | inconclusive [inhibitor, partial curve]
O=C(CC1N=C2c3ccccc3N=C(SCc3cccc(Cl)c3)N2C1=O)NCc1ccc2c(c1)OCO2 (stereo not given) | active: 20.6 µM
CCC1CCc2sc(C(=O)N(C)CC(=O)Nc3ccc(N4CCOCC4)cc3)cc2C1 (stereo not given) | inconclusive [inhibitor, single point]
O=C(c1cc2nc(-c3ccco3)cc(C(F)(F)F)n2n1)N1CCN(c2ccccc2)CC1 | inconclusive [inhibitor, single point]
O=C(/C=C/c1ccc(Cl)cc1Cl)c1ccc[nH]1 | inconclusive [inhibitor, single point]
COc1cc2c(cc1OC)n(Cc1cccc(C(F)(F)F)c1)c(=O)n1nc(-c3ccccc3)nc21 | inactive
Cc1ccc(-c2cnc3cc(C)nn3c2)cc1 | inconclusive [inhibitor, single point]
Cc1cc(C)c(NC(=O)CN(C)S(=O)(=O)c2ccc3c(c2)CCC(=O)N3)c(C)c1 | inactive
CCc1nnc(NC(=O)CCC(=O)N2CCN(CCOc3ccc(C)cc3)CC2)s1 | inconclusive [inhibitor, partial curve]
CC(C)(C)n1ncc2c(=O)n(CC(=O)c3ccc(Cl)cc3)cnc21 | active: 23.1 µM
NC(=O)NNc1cccc(Cl)n1 | inactive
Cc1cc(C(=O)NC(C)c2ccccc2)c2cc(F)ccc2n1 (stereo not given) | inconclusive [inhibitor, single point]
Cc1cc(C)c2c(=O)n(CC(=O)NCCCN3CCN(c4ccccc4F)CC3)sc2n1 | active: 3.26 µM
COc1ccc(COCC(O)CN2CCC(CN3C(=O)c4cccc5cccc(c45)C3=O)CC2)cc1OC (stereo not given) | active: 20.6 µM

— PubChem BioAssay AID686978 (National Center for Advancing Translational Sciences (NCATS), 2013)
